Data taken from PubChem BioAssay AID493208 (National Center for Advancing Translational Sciences (NCATS), 2011).
Out of some 44,000 compounds screened, about 340 (0.77%) were called active. Another 5% or so got no clear call; they are omitted. The call rests on the fitted dose curve; in most records, active means well fitted inhibition curve with a large enough effect; inconclusive means small, poorly fitted or top-dose-only effect; inactive means flat fitted curve, though single readings scatter. This is one part of the list.

Assay: Acumen qHTS Assay for Inhibitors of the mTORC1 Signaling Pathway in MEF (Tsc2-/-, p53-/-) Cells: Sytravon;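 further: plate controls were DMSO for no effect and rapamycin for full effect; nearly all actives have a fitted effect of over 50% in size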
Conditions: phospho-rpS6 immunofluorescence/PI, 24 h; series mostly up to 38.3 µM; activity change, negative = inhibition: at the top concentration
Procedure, shortened: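 Plate MEFs (Tsc2-/-, p53-/-, empty vector) in DMEM/10% FBS; after 24 h add compound, incubate 24 h at 37 degree Celsius; fix in PFA/TX-100, block, stain phospho-rpS6 and 10 uM PI; scan at 488 nm; report % positive cells.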

Activity change, negative = inhibition, inactive:
COC(=O)c1ccc(Nc2ncnc3c2cnn3C)cc1 2.04%, CC1CCN(S(=O)(=O)N2CCC(C(=O)NCc3ccccc3Cl)CC2)CC1 6.6%, COc1ccc(CNC(=O)Cc2c(C)c3cc4c(C)coc4cc3oc2=O)cc1OC 2.46%, COc1ccc(C2c3[nH]c4ccccc4c3CCN2C(=O)CCC2CCCC2)cc1 (centres undefined) -8.19%, CCN(CC)c1ccc(NC(=O)c2cc(C)nc3c2c(C)nn3-c2ccc(C)cc2)c(C)c1 -0.643%, CC(Sc1nccn1C)C(=O)Nc1ccccc1C#N (centres undefined) -3.23%, COc1ccc(-c2nc3scc(CCNS(=O)(=O)c4ccc(Oc5ccccc5)cc4)n3n2)cc1OC -1.63%, Cc1ccsc1CCN1C(=O)N(c2ccccc2)C(=O)C1CC(=O)Nc1ccc(Cl)cc1 (centres undefined) -5.31%, CCN(CC)C(=O)c1sc2c(c1C)c(=O)n(-c1ccc(C)c(C)c1)c(=O)n2Cc1cc(=O)n2ccccc2n1 0.174%, O=C(CNC(=O)c1ccccc1)OCc1cc(=O)n2nc(C3CCCCC3)sc2n1 4.17%, Cc1ccc2sc(N(Cc3cccnc3)C(=O)CCS(=O)(=O)c3ccccc3)nc2c1C -4.29%, COc1ccc(N2CCN(C(=O)CSc3nc(-c4ccc(C(C)C)cc4)no3)CC2)cc1 3.67%, CC(=O)c1cccc(NC(=O)Nc2sc3nc4n(c(=O)c3c2C)CCC(C)CC4)c1 (centres undefined) -1.12%, CCN(CC)C(=O)c1sc2c(c1C)c(=O)n(Cc1ccccc1)c(=O)n2Cc1ccccc1C -15.6%, Clc1ccc(CN2CCN(c3ncnc4sc5c(c34)CCCC5)CC2)cc1Cl -5.89%, COc1ccc(CNC(=O)Cc2c(C(=O)O)c(C)cn2C)cc1 -5.65%, COc1ccc(-c2nc3scc(CCNS(=O)(=O)c4ccc5c(c4)OCCO5)n3n2)cc1OC -0.896%, O=C(NCc1ccc(F)cc1Cl)c1cc(=O)[nH]c2ccc(S(=O)(=O)N3CCCCC3)cc12 -0.915%, CCOc1ccc(C(=O)Nc2c(C(=O)Nc3ccccc3OC)oc3ccccc23)cc1OCC -3.33%, Cc1cc(C)cc(OCCSc2nc3ccc(NC(=O)c4cccs4)cc3s2)c1 -6.25%, Cc1c(-c2ccccc2)c(=O)oc2ccc(OC(=O)N3CCOCC3)cc12 -3.44%, O=C(Cn1cc(C(=O)C2CCCCC2)c2ccccc21)Nc1ccccc1Cl -9.07%, COc1ccc2c(C)c(CC(=O)NCCc3ccc(Cl)cc3)c(=O)oc2c1C 1.85%, CCOc1ccc(NC(=O)CSC2=Nc3ccccc3C3=NC(CC(=O)NCc4cccs4)C(=O)N23)cc1 (centres undefined) 0.502%, COc1cc(-c2cc(OC)c3c(C)oc(C)c3c(=O)c2)ccc1OC(=O)c1ccc(C)cc1 -0.0619%, O=C(CSc1n[nH]c(-c2ccccc2Cl)n1)NCCCc1ccccc1 4.45%, Cc1ccc(-c2cn3c(n2)sc2cc(C(=O)NCCCN4CCCCCC4)ccc23)cc1 -0.388%, CC(CCc1ccccc1)NC(=O)Cn1c(=O)nc(-c2ccccc2)c2cc(Cl)ccc21 (centres undefined) 0%, CCc1ccc2oc(C(=O)N(Cc3ccc(N(C)C)cc3)Cc3ccco3)c(C)c2c1 3.05%, CC1=C(c2ccc(C)c(C)c2)S(=O)(=O)N=C1N1CCC(C(=O)NC(C)c2ccccc2)CC1 (centres undefined) 8.28%, CCCN(CCC)C(=O)c1cc2c(=O)n3cccc(C)c3nc2s1 -1.35%, CC(=O)c1cccc(NC(=O)C2CCN(c3ncnc4c3nc3n4CCCCC3)CC2)c1 -19.8%, O=C1c2ccccc2-c2onc3c(N4CCN(C5CCCCC5)CC4)cc(NCCO)c1c23 5.13%, CCCN(Cc1cccs1)C(=O)Nc1cc(C)cc(C)c1 -1.5%, Cc1nn(C)c2c1c(-c1ccccc1)cc(=O)n2Cc1ccc(F)cc1Cl -9.89%, CCN(CC)C(=O)Cn1c(=O)n(-c2ccc(Cl)cc2)c(=O)c2c3c(sc21)CCCCC3 -1.17%, COc1ccc(-c2nc3ccccc3o2)cc1NC(=O)c1cccc2c(Cl)cccc12 -0.579%, COc1ccc(NC(=O)CC2C(=O)N(c3ccc(OC)cc3)C(=O)N2Cc2ccc(OC)c(OC)c2)cc1 (centres undefined) -3.27%, CCOc1ccc(N2CC(NC(=O)Cc3cccs3)CC2=O)cc1 (centres undefined) 0.0048%, CCOc1ccc(CCNC(=O)CCn2c(=O)c3cccn3c3ccc(F)cc32)cc1OCC -6.76%, CCOc1ccc(NC(=O)CCc2c(C)nc3c4c(C)cc(C)nc4nn3c2C)cc1 -13.1%, CN(Cc1ccccc1)c1ccc2cc(S(=O)(=O)N3CCCCC3)ccc2n1 -5.06%, Cc1ccc(C)c(CSc2cn(CC(=O)N3CCCC3)c3ccccc23)c1 -13.9%, COc1ccc2cc(-c3nc(-c4ccc(N(C)C)cc4)no3)c(=O)oc2c1 -9.7%, COc1ccc(N2CCN(C(=O)c3ccc4c(c3)CCN4S(=O)(=O)c3ccccc3)CC2)cc1 -6.37%, COc1cccc(-c2cc(C(=O)NCc3ccccc3)no2)c1 5.61%, Cc1c(C(=O)N(C)Cc2ccccc2)sc2nc(-c3ccc(F)cc3)cn12 0.906%, COc1cc(NC(=O)CSc2cc(=O)n(C)c3ccccc23)cc(OC)c1OC 1.36%, COCCCNC(=O)C1CCN(Cc2cc3ccccc3n2Cc2cccc(Cl)c2)CC1 0.349%, Cc1ccc(-c2cn3c(n2)sc2cc(C(=O)NC4CCCCCC4)ccc23)cc1 1.75%, Cc1cc(C)n2nc(CNC(=O)c3cccc(N(C)C)c3)nc2n1 -3.04%, CCC12CN3CC(CC)(CN(C1)C3c1c[nH]c3ccccc13)C2=O (centres undefined) -6.48%, Cc1noc2ncnc(NCCc3ccccc3)c12 -2.99%, COc1ccc(NS(=O)(=O)c2ccc3c(c2)CC(C)N3C(=O)C2CCC2)cc1OC (centres undefined) -16.5%, Cc1ccc(NS(=O)(=O)c2ccc3nc(-c4ccccc4)[nH]c3c2)cc1Cl -5.54%, COc1ccc(Br)cc1CNC(=O)C1CCN(c2nnc(-n3cccc3CNc3ccc(C)cc3)s2)CC1 -2.17%, CCn1cc(C(=O)N(C)c2cc(C)ccc2C)c2cc(OC)c(OC)cc2c1=O 14.6%, O=S(=O)(Nc1nc2n(n1)C(c1ccc(F)cc1)C=C(c1ccc(Cl)cc1)N2)c1ccccc1 (centres undefined) 2.28%, CSc1nn(CC(=O)Nc2ccc(C)cc2C)c(N)c1S(=O)(=O)c1ccc(Cl)cc1 -13.6%, COc1cc2c(C(=O)N3CCN(c4ccc(F)cc4)CC3)cn(CC(C)C)c(=O)c2cc1OC -19.8%, CCOc1ccccc1NC(=O)C1CCCN(S(=O)(=O)c2cccs2)C1 (centres undefined) -10%, COc1ccc(NC(=O)c2sc3nc4n(c(=O)c3c2C)CCC4)c(OC)c1 2.02%, CCOC(=O)N1CCN(c2ncc3c(n2)CC(c2ccc(OC)c(OC)c2)CC3=O)CC1 (centres undefined) -5.15%, Cc1noc(/C=C/c2ccccc2F)c1S(=O)(=O)N1CCC(C(=O)NCc2ccco2)CC1 -8.3%, COc1ccc(CCNC(=O)CCc2c(C)nc3cc(-c4ccc(Cl)cc4)nn3c2C)c(OC)c1 5.09%, CCOC(=O)c1ccccc1NC(=O)N1CCCn2nc(C)cc21 2.09%, Cc1cc(C)cc(N2C(=O)CSC23C(=O)N(CC(=O)NC2CCCCC2)c2ccccc23)c1 (centres undefined) -0.928%, COc1ccc(C(=O)Nc2cccc(OCc3cc(=O)n4c5c(sc4n3)CCCC5)c2)cc1OC -0.702%, CCc1ccc(NC(=O)Cn2c(=O)n(Cc3ccc(C)cc3)c(=O)c3cccnc32)cc1 2.05%, CC(=O)N1CCCc2cc(S(=O)(=O)N3CCC(C(=O)N(C)C4CCCCC4)CC3)ccc21 -4%, Cc1ccccc1C(=O)Nc1nnc(S(=O)(=O)N2CCc3ccccc32)s1 -5.43%, COc1ccc(OC)c(CCNC(=O)c2cnn(-c3ccccc3)c2-n2cccc2)c1 -9.92%, O=C(CCS(=O)(=O)c1cc(Br)cc2c1N(C(=O)C1CC1)CC2)N1CCN(c2ccccc2)CC1 6.65%, CNC(=O)C1CCN(C(=O)N2CC(C)Oc3ccc(Cl)cc32)CC1 (centres undefined) 5.08%, CCOc1ccc(C2CC(=O)c3c([nH]c(C(=O)OCCOc4ccccc4)c3C)C2)cc1 (centres undefined) -10.4%, CCOC(=O)C1CCCN(C(=O)c2ccccc2NC(=O)c2nsc3ccccc23)C1 (centres undefined) -9.85%, Cc1nnc2c3ccccc3nc(N3CCN(c4ccccc4)CC3)n12 1.63%, O=C(c1ccc2c(c1)N(Cc1cccc(Cl)c1)C(=O)c1ccccc1S2(=O)=O)N1CCCC1 -3.85%, Cc1ccccc1Cn1nnc2c(=O)[nH]c(C3CCCN(C(=O)c4ccc(C(C)(C)C)cc4)C3)nc21 (centres undefined) -3.4%, N#Cc1c(-c2ccccc2)cc(-c2ccccc2)nc1SCC(O)CS(=O)(=O)Cc1ccccc1 (centres undefined) 10.2%, CCOCCCNC(=O)C1CCCN(c2ncnc3onc(C)c23)C1 (centres undefined) -4.91%, O=C(CCc1ccccc1)N(Cc1cccnc1)c1nc2ccc(F)cc2s1 -10.7%, CCN(CC)C(=O)CSc1nc2c(c(=O)n(C)c(=O)n2C)n1Cc1ccccc1 2.41%, CCOc1ccc(NC(=O)c2cnn(-c3ccccc3)c2-n2cccc2)cc1 -7.14%, COc1ccc2c(c1)c1c(c(=O)n(-c3ccc(C)cc3)c(=O)n1CC(=O)c1ccc(Cl)cc1)n2C 0.165%, COc1ccc(NC(=O)Cn2cc(S(=O)(=O)N3CCC(C)CC3)c3ccccc3c2=O)cc1Cl -23.5%, Cc1ccc(C)c(CNS(=O)(=O)c2ccc3c(c2)C(C)(C)C(=O)N3C)c1 0%, Cc1ccccc1C(=O)Nc1cccc(OCc2cc(=O)n3c4c(sc3n2)CCCC4)c1 -7.13%, CCOc1ccc(NC(=O)c2ccc3[nH]c(C)cc(=O)c3c2)cc1 2.53%, COc1cccc(CNS(=O)(=O)c2ccc3[nH]c4c(c3c2)CCCCC4)c1 -8.42%, Cc1ccc(C)c(N2CCN(C(=O)c3ccc(-c4nc(COc5ccccc5)c(C)o4)cc3)CC2)c1 -11.3%, COc1ccc2c(CNCCc3ccccc3C)c(C(=O)O)n(Cc3ccccc3C)c2c1 4.37%, CCOC(=O)c1c(S(=O)(=O)N2CCCC(C(=O)NCc3ccc(F)cc3)C2)c(C)n(CC)c1C (centres undefined) 0.705%, COc1ccc(CN(Cc2ccco2)C(=O)COc2ccc(Cl)cc2C)cc1 0.766%
